Residue numbers refer to the chain shown, from its start. These are yes or no findings as the source states them, for the method shown. Binding seen in cells or lysates may run through a third protein. Some entries that bind do so weakly or less than the wild type. For some assays here: Where a sequence is shown, tags or fusion partners need not be part of it. Blank lines part the entries; values can stand above or below the substance they belong to.
Tests used:
[1] = biological target: T1, Coactivator-associated arginine methyltransferase 1 (CARM1), endogenous (human (endogenous in MDA-MB-231, Hs 578T, MDA-MB-468)) (UniProt Q86X55); assay: co-IP; endogenous proteins; 500 μg cell extract (RIPA buffer) with specific antibody or normal IgG overnight at 4°C, protein A/G Sepharose beads; cells under normoxia or hypoxia (1% O2 for 24 h)
T1 sequence: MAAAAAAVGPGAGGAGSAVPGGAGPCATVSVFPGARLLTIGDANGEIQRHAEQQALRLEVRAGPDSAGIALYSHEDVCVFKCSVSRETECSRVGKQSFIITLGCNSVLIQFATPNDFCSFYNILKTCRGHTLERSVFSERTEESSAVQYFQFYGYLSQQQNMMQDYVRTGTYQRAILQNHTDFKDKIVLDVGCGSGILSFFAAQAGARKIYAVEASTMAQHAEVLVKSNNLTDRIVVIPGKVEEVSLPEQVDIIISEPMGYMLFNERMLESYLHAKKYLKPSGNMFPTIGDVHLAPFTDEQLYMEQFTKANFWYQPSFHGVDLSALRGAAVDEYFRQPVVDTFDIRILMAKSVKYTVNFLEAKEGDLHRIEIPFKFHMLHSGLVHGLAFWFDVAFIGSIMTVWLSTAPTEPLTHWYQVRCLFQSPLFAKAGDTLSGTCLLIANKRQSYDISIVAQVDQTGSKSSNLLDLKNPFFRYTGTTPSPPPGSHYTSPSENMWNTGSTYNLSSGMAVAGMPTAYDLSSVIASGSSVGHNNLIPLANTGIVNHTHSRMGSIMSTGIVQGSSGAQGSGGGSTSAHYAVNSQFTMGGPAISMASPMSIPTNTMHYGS

Protein sequences, listed by entry. Tags and fused reporters are not part of them.
UniProt Q99814: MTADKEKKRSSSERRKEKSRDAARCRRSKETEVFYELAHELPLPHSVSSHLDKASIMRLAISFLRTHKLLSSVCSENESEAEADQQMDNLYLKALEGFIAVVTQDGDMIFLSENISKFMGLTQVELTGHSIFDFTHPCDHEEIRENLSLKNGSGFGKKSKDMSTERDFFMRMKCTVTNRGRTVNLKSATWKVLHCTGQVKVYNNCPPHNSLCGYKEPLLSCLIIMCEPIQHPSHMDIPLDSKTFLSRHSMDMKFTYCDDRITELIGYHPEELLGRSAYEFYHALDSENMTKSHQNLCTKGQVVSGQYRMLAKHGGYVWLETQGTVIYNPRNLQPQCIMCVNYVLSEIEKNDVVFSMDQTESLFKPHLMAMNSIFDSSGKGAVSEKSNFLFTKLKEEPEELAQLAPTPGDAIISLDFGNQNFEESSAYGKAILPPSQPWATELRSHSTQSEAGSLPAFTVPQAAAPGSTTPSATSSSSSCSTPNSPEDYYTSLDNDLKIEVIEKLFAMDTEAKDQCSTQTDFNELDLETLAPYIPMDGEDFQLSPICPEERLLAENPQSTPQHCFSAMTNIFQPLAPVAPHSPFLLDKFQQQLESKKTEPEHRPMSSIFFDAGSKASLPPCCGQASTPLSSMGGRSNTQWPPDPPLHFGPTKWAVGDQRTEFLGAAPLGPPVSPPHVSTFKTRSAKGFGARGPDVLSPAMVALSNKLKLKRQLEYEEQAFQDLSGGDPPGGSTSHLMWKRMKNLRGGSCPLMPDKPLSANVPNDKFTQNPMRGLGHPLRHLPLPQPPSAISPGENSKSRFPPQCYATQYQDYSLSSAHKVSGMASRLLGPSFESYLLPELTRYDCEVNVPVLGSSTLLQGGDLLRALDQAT
UniProt Q16665: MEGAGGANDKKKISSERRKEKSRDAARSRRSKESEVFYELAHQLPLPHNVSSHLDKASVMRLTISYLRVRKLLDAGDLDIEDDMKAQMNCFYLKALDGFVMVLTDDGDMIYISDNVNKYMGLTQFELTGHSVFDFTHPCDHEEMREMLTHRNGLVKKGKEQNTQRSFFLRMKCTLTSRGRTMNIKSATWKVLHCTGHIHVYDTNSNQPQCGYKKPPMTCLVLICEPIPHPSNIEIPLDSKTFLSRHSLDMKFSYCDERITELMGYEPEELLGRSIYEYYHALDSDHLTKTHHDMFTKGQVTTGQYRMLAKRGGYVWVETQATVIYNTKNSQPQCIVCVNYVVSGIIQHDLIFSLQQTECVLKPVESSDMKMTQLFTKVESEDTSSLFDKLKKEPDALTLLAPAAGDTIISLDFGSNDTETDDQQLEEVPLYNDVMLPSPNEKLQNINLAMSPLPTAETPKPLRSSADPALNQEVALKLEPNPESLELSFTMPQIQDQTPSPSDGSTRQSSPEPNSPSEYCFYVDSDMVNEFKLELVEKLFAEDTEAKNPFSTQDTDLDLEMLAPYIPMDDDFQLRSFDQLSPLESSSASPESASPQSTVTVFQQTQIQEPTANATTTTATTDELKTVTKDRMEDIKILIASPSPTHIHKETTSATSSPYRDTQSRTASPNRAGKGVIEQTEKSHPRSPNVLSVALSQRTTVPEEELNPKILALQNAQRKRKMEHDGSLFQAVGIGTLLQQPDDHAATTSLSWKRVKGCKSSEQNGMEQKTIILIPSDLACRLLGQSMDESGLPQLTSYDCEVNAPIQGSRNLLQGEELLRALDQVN

[2] = biological target: T2, FLAG-tagged CARM1 (FLAG-CARM1) (UniProt Q86X55); assay: co-IP; whole cell extracts of MDA-MB-231 cells stably expressing FLAG vector or FLAG-CARM1 on an anti-FLAG affinity column, washed, eluted with FLAG peptide; purified fractions Western blotted for HIF1A and FLAG
T2 sequence: T1 sequence

[3] = biological target: T3, methyltransferase inactive CARM1-R168A mutant (UniProt Q86X55); assay: pull-down; about 5 μg GST fusion protein on glutathione-sepharose beads with 5–8 μL in vitro transcribed/translated product; 75 mmol/L NaCl, 50 mmol/L HEPES pH 7.9, 4°C, 2 h; Western blot; only the target purified
T3 sequence: T1 sequence with R168A

[4] = biological target: T4, CARM1 with EVH1 domain deletion (141–608 aa) (UniProt Q86X55); assay: as above
T4 sequence: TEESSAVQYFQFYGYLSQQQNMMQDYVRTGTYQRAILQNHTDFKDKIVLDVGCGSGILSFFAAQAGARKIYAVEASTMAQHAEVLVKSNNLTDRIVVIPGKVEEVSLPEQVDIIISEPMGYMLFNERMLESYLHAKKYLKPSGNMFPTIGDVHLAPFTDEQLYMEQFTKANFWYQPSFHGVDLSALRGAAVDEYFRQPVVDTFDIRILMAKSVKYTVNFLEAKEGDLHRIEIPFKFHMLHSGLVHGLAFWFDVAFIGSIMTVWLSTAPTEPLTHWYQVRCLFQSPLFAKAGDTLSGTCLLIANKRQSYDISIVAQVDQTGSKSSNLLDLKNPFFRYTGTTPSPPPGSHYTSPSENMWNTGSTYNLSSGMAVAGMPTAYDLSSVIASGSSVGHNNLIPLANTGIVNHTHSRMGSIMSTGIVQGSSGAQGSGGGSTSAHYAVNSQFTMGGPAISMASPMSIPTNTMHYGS

[5] = biological target: T5, GST-fused CARM1 EVH1 domain (1–140 aa) (UniProt Q86X55); assay: as above
T5 sequence: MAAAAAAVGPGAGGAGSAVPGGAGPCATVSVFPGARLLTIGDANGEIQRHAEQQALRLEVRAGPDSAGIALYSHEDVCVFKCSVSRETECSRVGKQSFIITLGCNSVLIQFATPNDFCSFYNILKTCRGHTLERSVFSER

GST-fused CARM1 = biological target: T6, GST-fused CARM1 (UniProt Q86X55); assay: as above
T6 sequence: T1 sequence

[6] = biological target: T7, GST-fused CARM1 catalytic core (141–480 aa) (UniProt Q86X55); assay: as above
T7 sequence: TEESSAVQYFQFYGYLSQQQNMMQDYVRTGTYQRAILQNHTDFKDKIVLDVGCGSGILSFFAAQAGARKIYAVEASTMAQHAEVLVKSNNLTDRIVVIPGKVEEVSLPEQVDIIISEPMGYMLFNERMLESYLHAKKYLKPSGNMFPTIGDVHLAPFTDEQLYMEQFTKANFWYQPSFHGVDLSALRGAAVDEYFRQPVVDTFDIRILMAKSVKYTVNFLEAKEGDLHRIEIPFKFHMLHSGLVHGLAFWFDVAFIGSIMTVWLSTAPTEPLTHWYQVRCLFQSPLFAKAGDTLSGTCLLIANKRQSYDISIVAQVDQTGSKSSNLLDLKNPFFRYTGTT

binding [1]: no binding
Substance: HIF2α, endogenous (from UniProt Q99814 1-870)

binding [1]: binds
Substance: Hypoxia-inducible factor-1 subunit alpha (HIF1A), endogenous (from UniProt Q16665 1-826)

binding [2]: binds
Substance: hypoxia-inducible factor-1 subunit alpha (HIF1A) (from UniProt Q16665 1-826)

binding [3]: binds
binding [4]: no binding
binding [5]: binds
binding (GST-fused CARM1): binds
binding [6]: no binding
Substance: in vitro transcribed/translated HIF1A (from UniProt Q16665 1-826)
